The test system of this test is LepR^b expressing pheochromocytoma PC12 (PC12^LEPRb) cells, Trpm7 current. The test can be described thus: Perforated-patch recording of non-selective cation (Trpm7) current in PC12^LEPRb cells. Conditions: leptin + FTY720 (3 μM).

Consider `CCCCCCCCc1ccc(CCC(N)(CO)CO)cc1` [FTY720], for which the “leptin-activated non-selective cation channel current” value is “completely blocked”.

The values above are taken from US20220273768A1 (The George Washington University, priority 2019, published 2022).
